# Assay results published in a collection of fitness landscapes (doi:10.1038/s41467-024-54723-y).
# In all, about 18,000 sequences were measured (“TetR repression strength (sort-seq, GFP reporter)”: median about 0.23, highest 2% from about 0.68 on). The list shows a part of the results.
# Target: TetR (class B, Tn10) (UniProt P04483)
# Assay: TetR repression strength (sort-seq, GFP reporter) (relative to tetO2 = 1); higher = stronger repression
# Settings: E. coli
# Procedure, shortened: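 Three independent transformations of E. coli SIG10-MAX were made with a low-copy plasmid library randomizing eight operator positions between a constitutive promoter and sfGFP, with constitutive TetR. Following 5 h at 37 °C in LB plus 50 µg/mL chloramphenicol, 10^6 cells went through FACS into 13 fluorescence bins, and each bin was sequenced by Illumina. Repression strength was defined as the top bin index plus one minus the read-weighted mean bin, divided by the unaltered operator's value. Averages included only members reaching ≥30 reads in all replicates with a CV ≤0.5.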
# UniProt P04483, sequence (P04483 whole entry): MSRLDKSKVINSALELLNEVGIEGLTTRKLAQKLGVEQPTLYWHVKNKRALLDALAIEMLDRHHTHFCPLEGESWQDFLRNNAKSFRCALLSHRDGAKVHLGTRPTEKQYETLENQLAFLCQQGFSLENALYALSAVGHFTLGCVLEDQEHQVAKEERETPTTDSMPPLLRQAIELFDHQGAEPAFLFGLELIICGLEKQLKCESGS
row,Sequence,TetR repression strength
1,TCCCTATGAGTTAATGAGA,0.127
2,TCCCGGCAAGTCCGAGAGA,0.513
3,TCCCTTATAGTTTAGGAGA,0.119
4,TCCCTGTGAGTGCAAGAGA,0.47
5,TCCCAAGCAGTGAAAGAGA,0.367
6,TCCCGCAGAGTGTATGAGA,0.201
7,TCCCGGTCAGTCTTAGAGA,0.463
8,TCCCAGGGAGTCATCGAGA,0.555
9,TCCCCTCGAGTATGGGAGA,0.133
10,TCCCCGAAAGTTAACGAGA,0.152
11,TCCCCTGAAGTCGCGGAGA,0.13
12,TCCCTTGAAGTGTCAGAGA,0.214
13,TCCCAGACAGTTGGTGAGA,0.387
14,TCCCTTGCAGTACGAGAGA,0.138
15,TCCCCTCAAGTAGCTGAGA,0.207
16,TCCCATTAAGTGCGGGAGA,0.124
17,TCCCGGGGAGTTAGGGAGA,0.346
18,TCCCGGAAAGTTGGCGAGA,0.383
19,TCCCTTGGAGTTCTGGAGA,0.569
20,TCCCCTGTAGTGATGGAGA,0.232
21,TCCCTTTTAGTTGTTGAGA,0.273
22,TCCCAGGGAGTGAACGAGA,0.604
23,TCCCCTCGAGTGCGTGAGA,0.301
24,TCCCTCATAGTGGCAGAGA,0.448
25,TCCCCGGAAGTGGGCGAGA,0.173
26,TCCCCTAGAGTAGGGGAGA,0.191

row,Sequence,TetR repression strength
1,TCCCGGCAAGTACTAGAGA,0.268
2,TCCCCGGAAGTCCGGGAGA,0.352
3,TCCCCTAGAGTATGAGAGA,0.537
4,TCCCTCAGAGTCACCGAGA,0.412
5,TCCCAGTTAGTGGACGAGA,0.218
6,TCCCTGTGAGTTTGTGAGA,0.366
7,TCCCCTGAAGTAGGGGAGA,0.317
8,TCCCGGTGAGTGATAGAGA,0.428
9,TCCCATGAAGTGTCTGAGA,0.178
10,TCCCAATCAGTGCAGGAGA,0.164
11,TCCCTGAGAGTGGCTGAGA,0.271
12,TCCCATTCAGTAGGCGAGA,0.295
13,TCCCGTGAAGTGGAAGAGA,0.321
14,TCCCAGCCAGTAACTGAGA,0.37
15,TCCCGAACAGTAGTTGAGA,0.242
16,TCCCGACAAGTGTTAGAGA,0.0117
17,TCCCGGAGAGTCGGCGAGA,0.14
18,TCCCACTTAGTTTTTGAGA,0.256
19,TCCCGACTAGTCGGAGAGA,0.264
20,TCCCTTTTAGTCGCAGAGA,0.329
21,TCCCGTCAAGTTGCGGAGA,0.23
22,TCCCTGGAAGTTCTAGAGA,0.223
23,TCCCGCGCAGTTAGAGAGA,0.24
24,TCCCCTCGAGTGTCTGAGA,0.168
25,TCCCTTATAGTTATAGAGA,0.312
26,TCCCGAGGAGTGAGAGAGA,0.322

row,Sequence,TetR repression strength
1,TCCCCATTAGTCCTAGAGA,0.301
2,TCCCCCGCAGTGGTTGAGA,0.211
3,TCCCTGTAAGTGTTCGAGA,0.273
4,TCCCACCAAGTCCGGGAGA,0.203
5,TCCCGGGCAGTTCTTGAGA,0.0775
6,TCCCGGAGAGTTTAAGAGA,0.145
7,TCCCGATCAGTATGAGAGA,0.185
8,TCCCTCTAAGTCCAGGAGA,0.267
9,TCCCTTACAGTTGGGGAGA,0.299
10,TCCCGATAAGTGGTGGAGA,0.315
11,TCCCCTCGAGTTGTTGAGA,0.315
12,TCCCGTTTAGTCGAAGAGA,0.15
13,TCCCGAATAGTAAGTGAGA,0.104
14,TCCCGGAGAGTTTGAGAGA,0.126
15,TCCCCCAGAGTTGCCGAGA,0.415
16,TCCCTTGCAGTACATGAGA,0.298
17,TCCCCTCGAGTTTGCGAGA,0.307
18,TCCCTTCAAGTGCCCGAGA,0.415
19,TCCCCTAGAGTGGACGAGA,0.127
20,TCCCTAATAGTGACTGAGA,0.314
21,TCCCAGATAGTCCGTGAGA,0.156
22,TCCCTAGCAGTTCTAGAGA,0.515
23,TCCCGCCGAGTACCTGAGA,0.183
24,TCCCACCGAGTGAGAGAGA,0.43
25,TCCCAAATAGTTGGTGAGA,0.314
26,TCCCTGTAAGTCGATGAGA,0.133

row,Sequence,TetR repression strength
1,TCCCGGTCAGTAGAAGAGA,0.226
2,TCCCAAGAAGTGGGTGAGA,0.151
3,TCCCTATCAGTCCTCGAGA,0.747
4,TCCCGCGTAGTCGACGAGA,0.302
5,TCCCGGCGAGTTTAGGAGA,0.328
6,TCCCTATCAGTCACCGAGA,0.789
7,TCCCGTCGAGTCAGGGAGA,0.367
8,TCCCATCCAGTTGTGGAGA,0.318
9,TCCCCCGAAGTAGCAGAGA,0.346
10,TCCCATCAAGTGCAAGAGA,0.315
11,TCCCTGTAAGTGTATGAGA,0.31
12,TCCCGATGAGTGGAGGAGA,0.383
13,TCCCATCGAGTGTGTGAGA,0.185
14,TCCCTGACAGTGTGTGAGA,0.311
15,TCCCGTGTAGTCTTAGAGA,0.304
16,TCCCGGGTAGTAAATGAGA,0.265
17,TCCCGGGGAGTCTTGGAGA,0.243
18,TCCCTAAGAGTCCCAGAGA,0.214
19,TCCCCAGGAGTGAACGAGA,0.401
20,TCCCGTAGAGTGTGCGAGA,0.256
21,TCCCCGGGAGTGGAGGAGA,0.175
22,TCCCAGGGAGTCGTCGAGA,0.188
23,TCCCGTCAAGTGGGTGAGA,0.222
24,TCCCATGAAGTGCGTGAGA,0.176
